PubChem BioAssay AID504332 (National Center for Advancing Translational Sciences (NCATS), 2011)
Hit rate of the full screen: of about 350,000 compounds, about 31,000 (8.9%) were called active. Inconclusive results, whose numbers are uncertain, are shown with a selection of clear calls. Calls follow the shape of the dose curve; as a rule, active = well fitted inhibition curve with a large enough effect; inconclusive = small, poorly fitted or top-dose-only effect; inactive = no such curve, though single readings can be large or run the other way. Where the call is inconclusive, the potency comes from a doubtful curve fit.
% is scaled to controls: 0 for no effect and ±100 for the full control effect; potency is read from the fitted curve at half-maximal effect; tags tell the direction and shape of the fitted curve.
Also: nearly all actives have a fitted effect of over 75% in size.

Each compound was assayed against Histone-lysine N-methyltransferase EHMT2 (Homo sapiens) (UniProt Q96KQ7) (assay: qHTS Assay for Inhibitors of Histone Lysine Methyltransferase G9a). Details: G9a H3K9 monomethylation, AlphaScreen, 2 h; activity, negative = inhibition: at 59 µM (top of the series) unless noted.
Sequence of UniProt Q96KQ7 (Q96KQ7 whole entry, looked up): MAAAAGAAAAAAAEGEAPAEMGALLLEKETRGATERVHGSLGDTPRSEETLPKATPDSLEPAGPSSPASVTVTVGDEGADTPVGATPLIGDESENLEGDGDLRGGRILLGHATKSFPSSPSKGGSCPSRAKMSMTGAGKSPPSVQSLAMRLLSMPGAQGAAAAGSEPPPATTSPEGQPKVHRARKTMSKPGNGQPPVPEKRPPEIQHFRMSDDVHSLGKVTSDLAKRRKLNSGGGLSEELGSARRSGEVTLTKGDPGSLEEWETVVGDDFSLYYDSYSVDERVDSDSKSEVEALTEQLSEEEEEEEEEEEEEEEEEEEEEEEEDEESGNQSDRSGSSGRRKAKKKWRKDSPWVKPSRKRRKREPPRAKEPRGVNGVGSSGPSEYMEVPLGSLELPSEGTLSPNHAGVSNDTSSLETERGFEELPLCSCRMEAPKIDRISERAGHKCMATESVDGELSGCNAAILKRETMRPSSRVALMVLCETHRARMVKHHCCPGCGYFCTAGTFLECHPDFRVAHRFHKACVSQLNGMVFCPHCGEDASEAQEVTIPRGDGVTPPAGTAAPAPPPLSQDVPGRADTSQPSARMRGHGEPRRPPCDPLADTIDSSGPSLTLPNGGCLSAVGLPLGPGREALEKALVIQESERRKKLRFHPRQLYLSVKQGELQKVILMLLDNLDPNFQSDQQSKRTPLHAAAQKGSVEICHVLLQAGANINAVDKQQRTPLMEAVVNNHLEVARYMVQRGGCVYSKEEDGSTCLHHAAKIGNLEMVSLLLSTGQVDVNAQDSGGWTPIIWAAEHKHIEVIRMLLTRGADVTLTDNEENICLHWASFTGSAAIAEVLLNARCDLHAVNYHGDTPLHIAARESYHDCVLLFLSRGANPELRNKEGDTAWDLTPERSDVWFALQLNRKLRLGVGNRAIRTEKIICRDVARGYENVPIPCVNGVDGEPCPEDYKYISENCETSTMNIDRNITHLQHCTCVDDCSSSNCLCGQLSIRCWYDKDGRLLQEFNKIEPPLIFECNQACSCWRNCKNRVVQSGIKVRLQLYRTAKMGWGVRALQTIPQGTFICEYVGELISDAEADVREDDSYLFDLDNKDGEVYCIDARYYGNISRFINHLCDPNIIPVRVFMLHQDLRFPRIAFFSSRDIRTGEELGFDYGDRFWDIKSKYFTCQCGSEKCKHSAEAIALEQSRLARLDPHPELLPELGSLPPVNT
In short: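 G9a (20 nM) preincubated 15 min RT with compounds, then 500 nM biotinylated H3K9 peptide and 20 uM SAM added; 2 h RT reaction. Monomethyl-H3K9 product detected by AlphaScreen with anti-H3K9me1 antibody, streptavidin donor and anti-rabbit IgG acceptor beads.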
In the case of `COc1ccccc1Nc1ncccc1[N+](=O)[O-]`, the Potency is reported as active: 8.91 µM. For `Cc1cccc(/C=N/NC(=O)c2ccc(NC(=O)c3cccc(Cl)c3)cc2)n1`, the Potency was inconclusive: 89.1 µM [inhibitor, single point]. `COc1ccc2[nH]cc(CCNc3cc(-c4ccc5c(c4)OCO5)ncn3)c2c1` was tested, and the activity, negative = inhibition was inactive: 6.54% [at 0.501 µM]. In the case of `COc1ccc2[nH]c(N=Nc3ccccc3C)c(O)c2c1`, the Potency is reported as active: 12.6 µM. `COc1cc([N+](=O)[O-])ccc1-c1ccc(C(=O)Nc2ccc(NC(C)=O)cc2)o1` was tested, and the Potency was active: 8.91 µM. In the case of `Cc1ccc(N(CC(=O)N/N=C/c2cc(C)n(-c3ccccc3C)c2C)S(C)(=O)=O)cc1`, the Potency is reported as inconclusive: 89.1 µM [inhibitor, single point]. In the case of `Cc1cc(C)c(NC(=O)Nc2sc3nc4n(c(=O)c3c2C)CCC(C)CC4)c(C)c1` (configuration not stated), the Potency is reported as inconclusive: 39.8 µM [inhibitor, partial curve, poor fit]. In the case of `COc1ccc(N2CCN(CCCNC(=O)C3CCC(CNc4nc(=S)[nH]c5ccccc45)CC3)CC2)cc1` (configuration not stated), the Potency is reported as inconclusive: 25.1 µM [inhibitor, full curve]. In the case of `C=C(C)CN=C1SC(C(=O)Nc2sc3c(c2C(=O)OC)CCC3)C(N)=C1C(N)=O` (configuration not stated), the “activity, negative = inhibition” value is reported as inactive: 7.63%. With `O=C(CCc1ccccc1)NNC(=O)c1ccccc1Br` the Potency was active: 28.2 µM. With `CCOC(=O)N1CCN(c2nc(=S)n(-c3ccccc3)c(C)c2C(C)=O)CC1` the Potency was inconclusive: 25.1 µM [inhibitor, single point]. `O=C(CCN1CCOCC1)Nc1ccc(Cl)cc1` was tested, and the Potency was inconclusive: 0.224 µM [inhibitor, full curve]. With `CCCCN(CCCNC(=O)c1c(C)cc(=O)oc1C)c1ccccc1` the Potency was active: 50.1 µM. With `CCOC(=O)c1ccc(-c2ccc(CO)o2)cc1` the Potency was active: 44.7 µM. With `Cc1[nH]c(=O)cc2ccccc12` the Potency was active: 25.1 µM. In the case of `CC(C)C(c1nnnn1Cc1ccccc1)N1CCN(Cc2ccc3c(c2)OCO3)CC1` (configuration not stated), the Potency is reported as inconclusive: 79.4 µM [inhibitor, partial curve, poor fit]. `Nc1c(C(=O)O)sc2nc(-c3ccccc3)c3c(c12)CCCC3` was tested, and the Potency was active: 6.31 µM. In the case of `N#CC12C(N)=NC3(OCCO3)C1(C#N)C1=C(CCC1)NC2c1ccccc1` (configuration not stated), the Potency is reported as inconclusive: 100 µM [inhibitor, single point]. In the case of `OCCN1CCN(C(=S)c2ccc(-c3ccccc3)cc2)CC1`, the Potency is reported as active: 22.4 µM. With `COc1ccc(N=CC=C2OC(C)(C)C(C)(C)O2)cc1OC` the Potency was active: 31.6 µM. For `Cc1cccc2nc(-c3ccco3)c(Nc3ccccc3)n12`, the Potency was inconclusive: 22.4 µM [inhibitor, single point]. With `CCn1cc(CNC(=O)c2ccc(OC3CCN(Cc4ccccn4)CC3)cc2)cn1` the “activity, negative = inhibition” value was inactive: 19.3% [at 102 µM]. `N#Cc1nc(-c2ccc(OCc3ccc(Cl)cc3)cc2)oc1NCCCn1ccnc1` was tested, and the Potency was inconclusive: 15.8 µM [inhibitor, partial curve, poor fit]. In the case of `CCCCSc1ccc2nc(-c3ccc(C#N)cc3)cn2c1`, the Potency is reported as inconclusive: 89.1 µM [inhibitor, single point]. `Cc1cc(OC(=O)c2ccc(F)cc2)c([N+](=O)[O-])c(=O)[nH]1` was tested, and the Potency was inconclusive: 79.4 µM [inhibitor, single point]. `COc1ccc2[nH]c(-c3ccccc3)cc2c1` was tested, and the “activity, negative = inhibition” value was inactive: -33.3% [at 102 µM]. With `Cc1ccc(C)c(NC(=O)CCC(=O)N/N=C2/CC(=O)CC(C)(C)C2)c1` the Potency was inconclusive: 25.1 µM [inhibitor, partial curve, poor fit]. `COc1cccc(CNC(=O)[C@H](CCSC)NC(=O)N2CCn3c2nc2ccccc23)c1` was tested, and the Potency was active: 50.1 µM. In the case of `CCC(=O)c1ccc(OCC(=O)Nc2cc(S(=O)(=O)N3CCCCC3)ccc2N2CCN(CC)CC2)cc1`, the Potency is reported as active: 10 µM. For `CCCN1C(=O)c2cc(C(=O)O)ccc2C1O` (configuration not stated), the Potency was inconclusive: 0.794 µM [inhibitor, full curve, poor fit]. `CCOC(=O)c1cc(NC(=O)Nc2nccs2)c(C)nc1C` was tested, and the Potency was inconclusive: 0.355 µM [inhibitor, partial curve, poor fit]. For `Nc1c(C(=O)Nc2ccc3c(c2)OCCO3)nnn1Cc1ccccc1`, the Potency was inconclusive: 89.1 µM [inhibitor, partial curve, poor fit]. For `COc1ccccc1NC(=O)c1sc(NC(=O)c2ccco2)c(C#N)c1C`, the “activity, negative = inhibition” value was inactive: -3.05%. With `O=C(NC1CCCC1)c1ccc(CSc2nc3cccnc3n2Cc2ccccc2F)cc1` the Potency was inconclusive: 35.5 µM [inhibitor, single point]. With `C/C(=N/NC(=O)c1cc(O)c(O)c(O)c1)c1ccc([N+](=O)[O-])cc1` the Potency was active: 7.08 µM. In the case of `CCc1ccc2[nH]c(=O)c(C(c3nnnn3CC3CCCO3)N3CCCc4ccccc43)cc2c1` (configuration not stated), the Potency is reported as inconclusive: 2.51 µM [inhibitor, partial curve, poor fit]. `Nc1nc(C(F)(F)F)cc(=O)[nH]1` was tested, and the “activity, negative = inhibition” value was inactive: 21%. With `Cc1cc(=O)[nH]c(N/N=C/C(C)c2ccccc2)n1` (configuration not stated) the Potency was active: 15.8 µM. `CC1CCN(c2ccc(C(=O)NCc3ccc4c(c3)OCO4)cc2[N+](=O)[O-])CC1` was tested, and the Potency was inconclusive: 28.2 µM [inhibitor, single point]. In the case of `O=c1[nH]nc(CSCc2ccccc2Cl)[nH]1`, the “activity, negative = inhibition” value is reported as inactive: -25.8%. `COc1ccccc1N1CCN(C[C@@H](O)COc2cccc3ccccc23)CC1` was tested, and the “activity, negative = inhibition” value was inactive: -5.79% [at 21.5 µM]. For `O=C(O)C1CCC(CNCc2ccncc2)CC1` (configuration not stated), the activity, negative = inhibition was inactive: -6.05% [at 0.501 µM]. `COc1ccc(NC(=O)CN(C)C(=O)/C=C/c2ccc(OCc3ccccc3)cc2)cc1` was tested, and the “activity, negative = inhibition” value was inactive: 13.3% [at 102 µM]. With `CCC(=O)Nc1ccccc1-c1nc2ccccc2[nH]c1=O` the Potency was inconclusive: 89.1 µM [inhibitor, single point]. `CN(C)c1ccc(C2C3C(=O)NC(=O)C3ON2c2ccc(Cl)cc2)cc1` (configuration not stated) was tested, and the Potency was inconclusive: 44.7 µM [inhibitor, partial curve, poor fit]. With `O=C(Nc1nc2ccccc2s1)c1ccccc1[N+](=O)[O-]` the Potency was inconclusive: 79.4 µM [inhibitor, partial curve, poor fit]. For `O=C1c2ccc(Oc3ccc4c(c3)C(=O)N(CCCO)C4=O)cc2C(=O)N1CCCO`, the Potency was inconclusive: 0.355 µM [inhibitor, full curve, poor fit].
